From PubChem BioAssay AID686979 (National Center for Advancing Translational Sciences (NCATS), 2013)
Several values for one entry are separate records, joined by “and”; a condition that tells them apart may be missing. Equal entries are not always repeated. The whole screen tested about 420,000 compounds, of which about 50,000 (12%) were called active. The shares of active, inactive and inconclusive entries below differ from those in the screen. The call rests on the fitted dose curve; in most records, active means well fitted inhibition curve with a large enough effect; inconclusive means small, poorly fitted or top-dose-only effect; inactive means flat fitted curve, though single readings scatter. Potencies beside an inconclusive call are fits to weak or partial responses and may not hold up.

assay: qHTS for Inhibitors of human tyrosyl-DNA phosphodiesterase 1 (TDP1): qHTS in cells in presence of CPT; settings: chicken DT40 Tdp1-/-;hTDP1 cells + 20 nM CPT, ATP luminescence, 48 h; activity change, negative = growth inhibition: at 46.2 µM (top of the series) unless noted; further: nearly all actives have a fitted effect of over 55% in size
How it was run: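 Chicken DT40 Tdp1-/- cells stably complemented with human TDP1 were seeded at 400 cells/well in medium containing 20 nM camptothecin, exposed to pin-transferred compounds, and grown at 37 °C for at least 48 hr. Viability was read as ATP luminescence.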
On the % scale 0 is the no-effect control and ±100 the full control effect; potency means the concentration at half of the fitted maximal effect; tags describe the fitted curve by direction and shape.

Row | SMILES | Potency | activity change, negative = growth inhibition
1 | O=C(Nc1nc(-c2ccco2)c(-c2ccco2)s1)c1cnccn1 | inconclusive: 18.4 µM [inhibitor, single point] | 
2 | Cc1c(N=Cc2cc3c(cc2[N+](=O)[O-])OCO3)cccc1[N+](=O)[O-] | inconclusive: 20.6 µM [inhibitor, single point] | 
3 | CCCCn1c(C(C)NC(=O)CC)nc2ccccc21 (configuration not stated) | active: 23.1 µM | 
4 | Cc1cc(C)cc(C(=O)NCC(=O)OCC(=O)NCC(F)(F)F)c1 |  | inactive: 3.33%
5 | Cc1ccc(C(=O)c2cc([N+](=O)[O-])ccc2N2CCOCC2)c(C)c1 | active: 0.82 µM | 
6 | N#C/C(=C\c1ccc(O)c(O)c1)C(N)=O | inactive and inconclusive: 33.5 µM [inhibitor, single point] | 
7 | CN(C)CCCOc1ccc(-c2cc3nc(NCc4cccnc4)n(C)c(=O)c3s2)cn1 | inconclusive: 29.1 µM [inhibitor, single point] | 
8 | Cc1ccc(C(C(=O)NC2CCCCC2)N(Cc2ccco2)C(=O)Cn2cnc3ccccc32)cc1 (configuration not stated) | active: 18.4 µM | 
9 | CC1CCCN(C(=O)C2CCN(S(=O)(=O)c3cccc4nsnc34)CC2)C1 (configuration not stated) |  | inactive: 7.51%
10 | COc1ccc(/C=C/C(=O)N(C)C2CCCCC2)cc1Br | inconclusive: 29.1 µM [inhibitor, single point] | 
11 | CC(C)C[C@@H]1CN=C(N)N1C[C@@H]1CCCN1C[C@H](C)N1C[C@@H](Cc2ccccc2)N(CCCC2CCCC2)C1=N | inconclusive: 23.1 µM [inhibitor, single point] | 
12 | COc1ccc(/C=C/C(=O)Nc2cccc(F)c2)cc1 | inconclusive: 29.1 µM [inhibitor, single point] | 
13 | CCOC(=O)c1ccc(Nc2nc(C)nc3c2nnn3Cc2ccccc2)cc1 | inconclusive: 9.2 µM [inhibitor, single point] | 
14 | CC1CCCN(C(=O)Cc2cn(Cc3cccc(Cl)c3)c3ccccc23)C1 (configuration not stated) | inconclusive: 14.6 µM [inhibitor, partial curve] | 
15 | Cn1c(=O)c2c(-c3ccccc3)n3c(c2n(C)c1=O)C(c1cccc([N+](=O)[O-])c1)Nc1ccccc1-3 (configuration not stated) | active: 13 µM | 
16 | CC1CCN(CCCNC(=O)c2n[nH]c(=O)c3ccccc23)CC1 | inconclusive: 5.17 µM [inhibitor, partial curve] | 
17 | COc1cc(/C=C/C(=O)OCC(=O)NCCCc2ccccc2)ccc1O |  | inactive: -9.29%
18 | CCCn1c(CNc2ccccc2O)nc2ccccc21 | inconclusive: 16.4 µM [inhibitor, single point] | 
19 | Cc1ccccc1OCc1nnc(SCc2nc3ccccc3c(=O)[nH]2)n1C |  | inactive: 5.36%
20 | COC(=O)[C@@H](NC(=O)NC1CCCCC1C)C(C)C (some centres not stated) |  | inactive: 6.99%
21 | Cc1ccc(NC(=O)C2CCCN(c3nc4ccccc4s3)C2)c(C)c1 (configuration not stated) |  | inactive: -27%
22 | CCOc1ccc(NS(=O)(=O)c2ccc3[nH]c(=O)[nH]c3c2)cc1 |  | inactive: -15.1%
23 | C=CCn1c(-c2ccc(OC)cc2)csc1=Nc1c(C)n(C)n(-c2ccccc2)c1=O | active: 20.6 µM | 
24 | COC(=O)c1ccc(C(=O)OC)c(NC(=O)CN2CCC(C)CC2)c1 |  | inactive: -21.4%

Row | SMILES | Potency | activity change, negative = growth inhibition
25 | Cc1cccc(C)c1NC(=O)Cn1c(=O)n(CCC(=O)NCc2ccc3c(c2)OCO3)c(=O)c2sccc21 |  | inactive: -4.82%
26 | CC(=O)N1CCc2cc(NC(=O)C3(C)CCN3Cc3ccc(C(C)C)cc3)ccc21 (configuration not stated) | inconclusive: 29.1 µM [inhibitor, single point] | 
27 | COc1ccc(-c2cc(C(F)(F)F)n3nc(C(=O)Nc4ccc(Cl)cc4C(F)(F)F)cc3n2)cc1OC |  | inactive: -9.91%
28 | O=C(C1=C[C@H](c2ccc(Br)cc2)C[C@H](OCc2ccc(CO)cc2)O1)N1CCOCC1 | inconclusive: 23.1 µM [inhibitor, partial curve] | 
29 | O=S(=O)(c1cccc2c(I)cccc12)N1CCCNCC1 | active: 13 µM | 
30 | COc1ccc(S(=O)(=O)N2CCC[C@H]2C(=O)NCc2ccc(Cl)cc2)cc1 | inconclusive: 16.4 µM [inhibitor, single point] | 
31 | CC(=O)NC(CCS(C)(=O)=O)C(=O)Nc1nccs1 (configuration not stated) | inconclusive: 29.1 µM [inhibitor, single point] | 
32 | Cc1oc(-c2ccccc2)nc1Cn1c(=O)cc(-c2ccccc2)c2c(C)nn(C)c21 | inconclusive: 16.4 µM [inhibitor, single point] | 
33 | CCOc1ccc(N(CC(=O)Nc2cc(C)cc(C)c2)S(C)(=O)=O)cc1 | inconclusive: 13 µM [inhibitor, partial curve] | 
34 | CCCCCCn1cc(C(=O)O)c(=O)c2cc(F)c(N3CCN(C(=O)OCC)CC3)cc21 | inconclusive: 20.6 µM [inhibitor, single point] | 
35 | OC(c1ccccc1)C(O)C(c1ccccc1)N1CCCCC1 (configuration not stated) |  | inactive: 12.3%
36 | COc1ccccc1N1CCN(C(=O)c2ccco2)CC1 |  | inactive: -4.38%
37 | Cc1ccc([N+](=O)[O-])cc1S(=O)(=O)Nc1ccccn1 |  | inactive: -1.29%
38 | Clc1cccc(CNc2ccn3nc(-c4cccs4)cc3n2)c1 |  | inactive: -24.1%
39 | CCCCc1c(-c2ccccc2OC)ncn1CCc1ccc(OC)cc1 | active: 18.4 µM | 
40 | O=C(CC1C(=O)N(Cc2ccccc2)C(=S)N1CCN1CCOCC1)Nc1ccc(F)cc1 (configuration not stated) | inconclusive: 16.4 µM [inhibitor, partial curve, poor fit] | 
41 | COCCCn1c(=O)c2sccc2n(Cc2cccc(F)c2)c1=O |  | inactive: -19.9%
42 | CS(=O)(=O)c1ccccc1-c1nnc(NC(=O)c2ccc(S(=O)(=O)N3CCCC3)cc2)o1 |  | inactive: -11.1%
43 | COc1ccc(CCNCc2ccc(OCc3ccc(Cl)nc3)c(OC)c2)cc1OC | inconclusive: 20.6 µM [inhibitor, single point] | 
44 | Cc1ccc(NC(=O)c2cnc(SCC(=O)N3CCCc4ccccc43)n(C)c2=O)cc1C |  | inactive: -4.54%
45 | O=C(NNC(=O)c1ccccc1O)c1ccc(Br)cc1 | inconclusive: 6.51 µM [inhibitor, single point] | 
46 | Cn1ccc(=Nc2ccc(NC(=O)c3ccc(N=c4ccn(C)c5ccc([N+](=O)[O-])cc45)cc3)cc2)cc1 | active: 3.66 µM | 
47 | O=C(Cn1cnc2c(nnn2Cc2ccc(F)cc2)c1=O)Nc1cccc(F)c1 | inconclusive: 0.326 µM [inhibitor, full curve, poor fit] | 
